Results reported in paper PMC3972206.
No constants are given. Whether binding was seen depends on the method and setting. Some binding calls cover weakened binding; strength is not graded here. For some of these results: Where a sequence is shown, tags or fusion partners need not be part of it.

By UniProt entry, the sequences of proteins in these tests, tags left out. Where a name states a change or a piece, a line headed by the entry shows the natural chain unless it says otherwise.
UniProt P07384: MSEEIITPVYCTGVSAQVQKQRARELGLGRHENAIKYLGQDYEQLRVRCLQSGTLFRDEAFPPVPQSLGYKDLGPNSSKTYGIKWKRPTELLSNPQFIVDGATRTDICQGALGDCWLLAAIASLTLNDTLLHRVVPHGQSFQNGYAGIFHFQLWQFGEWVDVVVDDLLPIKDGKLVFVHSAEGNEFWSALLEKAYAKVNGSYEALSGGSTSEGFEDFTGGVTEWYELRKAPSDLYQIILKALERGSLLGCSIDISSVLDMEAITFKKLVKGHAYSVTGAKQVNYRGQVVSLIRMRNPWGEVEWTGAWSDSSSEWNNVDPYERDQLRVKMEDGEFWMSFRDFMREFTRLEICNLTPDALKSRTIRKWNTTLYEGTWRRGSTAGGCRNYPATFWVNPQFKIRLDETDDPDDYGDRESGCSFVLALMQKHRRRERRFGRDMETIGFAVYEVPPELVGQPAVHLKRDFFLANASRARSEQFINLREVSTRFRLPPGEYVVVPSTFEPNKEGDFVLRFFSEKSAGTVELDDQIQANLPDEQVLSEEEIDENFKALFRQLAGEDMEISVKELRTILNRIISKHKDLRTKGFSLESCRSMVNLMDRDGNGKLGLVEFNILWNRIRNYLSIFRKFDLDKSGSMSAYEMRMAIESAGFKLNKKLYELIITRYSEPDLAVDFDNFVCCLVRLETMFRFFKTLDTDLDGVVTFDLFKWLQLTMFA
UniProt P04632: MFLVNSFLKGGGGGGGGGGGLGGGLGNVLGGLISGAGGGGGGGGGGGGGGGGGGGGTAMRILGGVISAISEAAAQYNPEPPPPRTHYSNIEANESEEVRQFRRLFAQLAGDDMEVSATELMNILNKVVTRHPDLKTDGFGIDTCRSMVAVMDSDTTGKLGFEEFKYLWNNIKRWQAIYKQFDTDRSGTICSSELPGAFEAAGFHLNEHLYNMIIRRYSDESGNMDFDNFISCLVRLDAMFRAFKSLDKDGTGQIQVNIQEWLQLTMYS
UniProt P49005: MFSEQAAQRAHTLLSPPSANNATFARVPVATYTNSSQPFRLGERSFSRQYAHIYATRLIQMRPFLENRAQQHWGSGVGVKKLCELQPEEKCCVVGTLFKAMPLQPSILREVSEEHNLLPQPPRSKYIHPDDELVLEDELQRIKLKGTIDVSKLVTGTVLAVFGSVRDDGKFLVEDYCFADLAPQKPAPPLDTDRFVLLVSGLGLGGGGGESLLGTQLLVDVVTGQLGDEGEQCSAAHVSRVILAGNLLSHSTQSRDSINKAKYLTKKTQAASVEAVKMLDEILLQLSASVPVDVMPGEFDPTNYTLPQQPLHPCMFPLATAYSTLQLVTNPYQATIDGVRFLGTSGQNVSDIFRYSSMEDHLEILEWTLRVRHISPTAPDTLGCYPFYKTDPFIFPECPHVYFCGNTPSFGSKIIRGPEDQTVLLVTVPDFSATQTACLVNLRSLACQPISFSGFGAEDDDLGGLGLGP
UniProt P28340: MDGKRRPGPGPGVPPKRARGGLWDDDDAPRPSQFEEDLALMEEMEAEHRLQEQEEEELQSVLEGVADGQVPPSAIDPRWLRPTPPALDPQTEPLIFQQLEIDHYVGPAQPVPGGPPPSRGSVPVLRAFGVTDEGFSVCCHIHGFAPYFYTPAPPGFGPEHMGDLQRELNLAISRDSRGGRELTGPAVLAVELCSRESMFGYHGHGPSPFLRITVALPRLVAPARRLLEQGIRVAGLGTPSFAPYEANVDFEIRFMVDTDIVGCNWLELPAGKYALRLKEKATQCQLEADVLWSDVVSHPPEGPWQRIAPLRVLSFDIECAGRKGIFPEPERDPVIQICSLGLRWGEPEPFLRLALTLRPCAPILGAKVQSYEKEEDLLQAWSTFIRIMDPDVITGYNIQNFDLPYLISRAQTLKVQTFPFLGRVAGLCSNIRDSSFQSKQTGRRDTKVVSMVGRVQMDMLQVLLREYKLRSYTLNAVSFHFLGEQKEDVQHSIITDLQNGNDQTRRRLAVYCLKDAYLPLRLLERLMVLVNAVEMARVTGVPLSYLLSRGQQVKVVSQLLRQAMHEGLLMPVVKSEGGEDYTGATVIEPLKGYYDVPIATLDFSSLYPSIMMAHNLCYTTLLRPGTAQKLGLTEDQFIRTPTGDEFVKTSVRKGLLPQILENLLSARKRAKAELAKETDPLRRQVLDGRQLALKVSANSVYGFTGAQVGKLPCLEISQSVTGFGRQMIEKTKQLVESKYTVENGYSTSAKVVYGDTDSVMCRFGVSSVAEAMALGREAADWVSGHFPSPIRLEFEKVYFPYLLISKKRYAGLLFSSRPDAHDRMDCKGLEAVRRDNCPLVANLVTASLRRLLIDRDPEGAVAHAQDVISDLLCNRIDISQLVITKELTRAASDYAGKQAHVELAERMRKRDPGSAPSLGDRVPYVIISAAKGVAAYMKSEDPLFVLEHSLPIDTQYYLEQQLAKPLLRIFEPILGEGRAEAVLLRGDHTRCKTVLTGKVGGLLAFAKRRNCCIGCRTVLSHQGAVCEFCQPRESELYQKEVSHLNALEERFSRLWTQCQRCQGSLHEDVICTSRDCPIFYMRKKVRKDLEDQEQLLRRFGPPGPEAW
UniProt P12004: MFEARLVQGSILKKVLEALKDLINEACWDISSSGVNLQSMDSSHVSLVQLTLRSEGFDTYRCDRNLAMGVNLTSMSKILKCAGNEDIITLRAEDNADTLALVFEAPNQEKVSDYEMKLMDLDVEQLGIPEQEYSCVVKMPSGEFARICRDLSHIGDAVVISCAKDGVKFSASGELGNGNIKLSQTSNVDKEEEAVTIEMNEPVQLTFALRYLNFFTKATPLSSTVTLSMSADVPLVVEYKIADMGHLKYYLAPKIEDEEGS

Key:
[1] = molecular target: T1, Active human μ-calpain (calpain I) (human) (UniProt P07384+P04632); test: co-IP; 0.5 μg PCNA and 0.5 μg μ-calpain; precipitated with anti-μ-calpain antibody; blot with PC-10 anti-PCNA; normal rabbit IgG as control; both purified
[2] = molecular target: T1, Active human μ-calpain (calpain I) (human); test: co-IP; 0.5 μg His-tagged p125 with 0.5 μg μ-calpain in 1×PBS, 1% NP-40, protease inhibitor cocktail; precipitated with anti-μ-calpain antibody and protein A/G agarose pre-treated with 2% BSA; blot with anti-p125; normal rabbit IgG as control; both purified
[3] = molecular target: T2, GST tagged full-length p12 subunit of human DNA polymerase delta (human) (UniProt Q9HCU8); test: pull-down; GST pull-down; GST-tagged p68, p50 or p12 (or GST) as bait on glutathione-Sepharose 4B beads, μ-calpain as prey; blot with anti-μ-calpain; both purified
T2 sequence: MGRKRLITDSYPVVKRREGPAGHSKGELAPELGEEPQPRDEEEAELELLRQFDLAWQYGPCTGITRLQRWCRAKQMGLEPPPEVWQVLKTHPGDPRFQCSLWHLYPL

[4] = molecular target: T3, GST tagged full-length p68 subunit of human DNA polymerase delta (human) (UniProt Q15054); test: as above
T3 sequence: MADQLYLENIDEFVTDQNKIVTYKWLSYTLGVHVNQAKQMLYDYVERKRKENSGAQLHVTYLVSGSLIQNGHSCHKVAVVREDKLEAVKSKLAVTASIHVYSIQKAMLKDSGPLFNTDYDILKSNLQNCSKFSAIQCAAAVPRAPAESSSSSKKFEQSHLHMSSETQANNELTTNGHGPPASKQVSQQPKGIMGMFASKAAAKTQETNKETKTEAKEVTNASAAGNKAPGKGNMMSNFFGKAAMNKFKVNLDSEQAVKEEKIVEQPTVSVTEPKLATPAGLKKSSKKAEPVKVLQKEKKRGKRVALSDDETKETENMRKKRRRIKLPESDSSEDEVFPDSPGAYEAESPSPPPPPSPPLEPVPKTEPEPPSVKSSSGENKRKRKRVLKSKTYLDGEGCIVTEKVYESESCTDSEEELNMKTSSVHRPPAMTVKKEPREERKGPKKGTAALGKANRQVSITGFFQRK

[5] = molecular target: GST tagged full-length p50 subunit of human DNA polymerase delta (human) (UniProt P49005); test: as above
[6] = molecular target: His-tagged p125, catalytic subunit of human DNA polymerase delta (human) (UniProt P28340); test: pull-down; Ni-NTA pull-down; 0.5 μg His-tagged p125 as bait with 0.5 μg μ-calpain in 500 μl binding buffer (50 mM NaH2PO4, 300 mM NaCl, 20 mM imidazole, 10% glycerol, pH 8.0); nickel beads pre-treated with 2% BSA; blot with anti-μ-calpain; both purified
[7] = molecular target: Recombinant human PCNA (human) (UniProt P12004); test: co-IP; 0.5 μg PCNA and 0.5 μg μ-calpain; precipitated with PC-10 anti-PCNA mouse monoclonal antibody and protein A/G agarose; blot with anti-μ-calpain; normal mouse IgG as control; both purified

## Recombinant human PCNA (from UniProt P12004 1-261)
[1]
  binding: binds

## His-tagged p125, catalytic subunit of human DNA polymerase delta (from UniProt P28340 1-1107)
[2]
  binding: binds

## Active human μ-calpain (calpain I) (from UniProt P07384 1-714; P04632 1-268) (enzyme)
[3]
  binding: no binding
[4]
  binding: binds
[5]
  binding: binds
[6]
  binding: binds
[7]
  binding: binds
